This sample is rich in variants without activity.
B1: TPR 5TU (parent)
chain: GGAUCUUCUCGAUCUAACAAAAAAGACAAAUCUGCCACAAAGCUUGAGAGCAUCUUCGGAUGCAGAGGCGGCAGCCUUCGGUGGCGCGAUAGCGCCAACGUUCUCAACUAUGACACGCAAAACGCGUGCUCCGUUGAAUGGAGUUUAUCAUG

Variants of: B1
Assay: polymerase ribozyme fitness, log enrichment relative to wild type (log ratio); higher = more active; in vitro selection for triplet polymerase activity
How it was run: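 Mutant libraries were PCR-built and transcribed for each subunit of a heterodimeric triplet polymerase ribozyme and selected for one round in triplicate at −7 °C, frozen, before gel excision of extended constructs and streptavidin-bead capture. Input and output libraries were Illumina-sequenced, keeping genotypes with ≥10 input reads and ≥1 read per output. Fitness is a logarithmic ratio of genotype to wild-type enrichment, in base 2, using inverse-variance-weighted replicate averages.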

GGAUCUUCUCGAUCUAACAAAAAAGACAAAUCUGCCACAAAGCUUGAGCGCAUCUACGGAUGCAGAGGAGGCAGCCUUCGGUGGCGCGAUAGCGCCAAAGUUCUCAACUAUGACACGCAAAACGCGUGCUCCGUUGAAUGGAGUUUAUCAUG [A49C U56A C69A C99A] and GGAUCUUCUCGAUCUAACAAAAAAGACAAAUCUGCCACAAAGCUUGAGCGCAUCUACGAAUGCAGAGGCGGCAUCCUUCGGUGGCGCGGUAGCGCCAACGUUCUCAACUAUGACACGCAAAACGCGUGCUCCGUUGAAAGGAGUUUAUCAUG [A49C U56A G59A G74U A89G U139A] cannot be ordered by “polymerase ribozyme fitness (log ratio)” value: no more than -4.2 for the first, no more than -4.2 for the second.

GGAUCUUCUCGAUCUAACAAAAAAGACAAAUCUGCCACAAAGCUUGAGCGCAUCUACGGAGGCAGAGGCGGCAGCCUUCGGUGGCGCGAAAGCGCCAACGUUCUCAACUAUGACACGCAAAACGCGUGCUCCGUUGAAUGGAGUUUAUCAUG [A49C U56A U61G U90A] and GGAUCUUCUCGAUCUAACAAAAAAGACAAAUCUGCCACAAAGCUUGAGCGCAUCUUCGGAUGCAGAGGCGGCAGCCGUCGGUGGCGCGUUAGCGCCAACGUUCUCAACUGUGACAUGCAAAACGCGUGCUCCGUUGAAUGGAGUUUAUCAUG [A49C U77G A89U A110G C116U] cannot be ordered by “polymerase ribozyme fitness (log ratio)” value: no more than -4.2 for the first, no more than -4.2 for the second.

GGAUCUUCUCGAUCUAACAAAAAAGACAAAUCUGCCACAAAGCUUGAGCGCAUCUUCGGAUGCAGAGGCGGCAGCCUGCGGUGGCGAGAUAGCGCCAACGUUCUCAACUAUGACACGCAAAACGCGUGCUCCGUUGAAUGGAGUUUAUCAUG [A49C U78G C87A] and GGAUCUUCUCGAUCUAACAAAAAAGACAAAUCUGCCACAAAGCUUGAGCGCAUCUUCGGAUGCAGAGGCGGCAGCCUUCGGAGGCGCGAUAGCGCCAACGUUCUCAACUAUGACACGCAAAACGCGUGCUCCGUUGAAUGGAGUUUAUCAUG [A49C U82A] cannot be ordered by “polymerase ribozyme fitness (log ratio)” value: no more than -4.2 for the first, no more than -4.2 for the second.

GGAUCUUCUCGAUCUAACAAAAAAGACAAAUCUGCCACAAAGCUUGAGCGCAUCUUCGGAUGCAGAGGCGGCAGCCUUCGGAGGCGCGAUAGCGCCAACAUUCUCAUCUCUGACACGCAAAACGCGUGCUCCGUUGAAUGGAGUUUAUCAUG [A49C U82A G100A A107U A110C] and GGAUCUUCUCGAUCUAACAAAAAAGACAAAUCUGCCACAAAGCUUGAGCGCAUCUUCGGAUGCAGAGGCGGCAGCCUUCGGUGGCGCGAAAACGCCAACGUUGUCAACUAUGACACUCAAAACGCGUGCUCCGUUGAGUGGAGUUUAUCAUG [A49C U90A G92A C103G G117U A138G] cannot be ordered by “polymerase ribozyme fitness (log ratio)” value: no more than -4.2 for the first, no more than -4.2 for the second.

GGAUCUUCUCGAUCUAACAAAAAAGACAAAUCUGCCACAAAGCUUGAGCGCAUCUUCGGAUGCAGAGGCGGCAGCCUUCGGUGGCGCGAUAGCGCCAACGUUCUCAACGAUGACACGCAAAACGCGUGCUCCGUUGAAUGGAGUUUAUCAUG [A49C U109G] and GGAUCUUCUCGAUCUAACAAAAAAGACAAAUCUGCCACAAAGCUUGAGCGCAUCUUCGGAUGCAGAGGCGGCAGCCUUCGGUGGCGCGAUAGCGCCAACGUUCUCAACUAUGACACGCAAAACGCGUGCUCCGUUGAAUGGAGUUGAUCAUG [A49C U146G] cannot be ordered by “polymerase ribozyme fitness (log ratio)” value: no more than -4.2 for the first, no more than -4.2 for the second.

First: GGAUCUUCUCGAUCUAACAAAAAAGACAAAUCUGCCACAAAGCUUGAGGGCCUCUACGGAUGCAGAGGCGGCAGCCUUCGGUGGCGCGAUGACGCCAACGUUCUCAACUAUGACACGCAAGACGCGUGCUCCGUUGAAUGGAGUUUAUCAUG [A49G A52C U56A A91G G92A A121G]
Second: GGAUCUUCUCGAUCUAACAAAAAAGACAAAUCUGCCACAAAGCUUGAGGGCCUCUUCGGAAGCAGAGGCGGCAGCCUUCGGUGGCGCGAUCGCGCCAACGUUCUCAACUAUGACACGCAAAACGCGUGCUCCGUUGAAUGGAGUUUAUCAUG [A49G A52C U61A A91C]
The “polymerase ribozyme fitness (log ratio)” value of the first is higher: -3.9 for the first, no more than -4.2 for the second.

Compared with GGAUCUUCUCGAUCUAACAAAAAAGACAAAUCUGCCACAAAGCUUGAGGGCAUCUUCGGAUGCAGAGGCGGCAGCCUUCGGUGGCGCGAUUGCGCCAACGUUCUCAACUAUGACACGAAAAACGCGUGCUCCGUUGAAUGGAGUUUAACAUG [A49G A91U C118A U148A], GGAUCUUCUCGAUCUAACAAAAAAGACAAAUCUGCCACAAAGCUUGAGGGAAUCUUCGGAUGCAGAGGCGGCAGCCUUCGGUGGCGCGAUAGCACCAACGUUCUCAACUAUGACACGCAAAACUCGUGCUCCGUUGAAUGGAGUUUAUCAUG [A49G C51A G94A G124U] is higher in “polymerase ribozyme fitness (log ratio)” value: no more than -4.2 for the first, -3.32 for the second.

Going from GGAUCUUCUCGAUCUAACAAAAAAGACAAAUCUGCCACAAAGCUUGAGGGAACCUUCGGAUGCAGAGGCGGCAGCCUUCGGUGGCGGGAUAGCGCCAACGUUCUCAACUAUGACACGCAAAACGCGUGCUCCGUUGAAUGGAGUUUAUCAUG [A49G C51A U53C C87G] to GGAUCUUCUCGAUCUAACAAAAAAGACAAAUCUGCCACAAAGCUUGAGGGCAUAUUCGGAUGCAGAGGCGGCAGCCUUCGGUGGCGCGAUAGCGCCAACGUUCUCAACUAUGACAGGCAAUACGCGUGCUCCGUUGAAUGGAGUUUAUCAUG [A49G C54A C116G A121U], the “polymerase ribozyme fitness (log ratio)” value rises from no more than -4.2 to -2.34.

GGAUCUUCUCGAUCUAACAAAAAAGACAAAUCUGCCACAAAGCUUGAGGGCAUUUUCGGAUGCAGAGGCGGCAGCCUUCGGUGGCGCCAUAGCGCGAACGUUCUCAACUUUGACACGCAAAACGCGUGCUCCGUUGAAUGGAGUUUAUCGUG [A49G C54U G88C C96G A110U A150G] and GGAUCUUCUCGAUCUAACAAAAAAGACAAAUCUGCCACAAAGCUUGAGGGCAUCUUCGGAUGAAGAGGCGUCAGCCUUCGGUUGCGCGAUAGCGCCAACGUUCUCAACUAUGACACGCAAAUCGCGUGCUCCGUUGAAUGGAGUUUAUCUUG [A49G C63A G71U G83U A122U A150U] cannot be ordered by “polymerase ribozyme fitness (log ratio)” value: no more than -4.2 for the first, no more than -4.2 for the second.

With GGAUCUUCUCGAUCUAACAAAAAAGACAAAUCUGCCACAAAGCUUGAGGGCAUCUUCGGAUGCAGAGGUGGCAGCCUUCGGUGGCGCGAUAGCGCCAACGUUCUCAACUAUGACACGCAAAACGCGUGCUCCGUUGAAUGGAGUUUAUCAUG [A49G C69U] the “polymerase ribozyme fitness (log ratio)” value was -1.39.

From the RNAGym collection of RNA variant scans (doi:10.1073/pnas.2313332121)
